Columns and labels:
Assay type in all cases: in vivo
[1] = test system: Botrytis cinerea; assay: Test Example B: Gray mold on tomato; conditions: for Test B control value: Gray mold on tomato; for control value, Test B (gray mold on tomato): Table 7, Test B; for Test B control value (gray mold on tomato): class of control value, Table 7
[2] = test system: Alternaia brassicicola; assay: Test Example C: Alternaria sooty spot on cabbage; conditions: for Test C control value: Alternaria sooty spot on cabbage; for control value, Test C (Alternaria sooty spot on cabbage): Table 7, Test C; for Test C control value (Alternaria sooty spot on cabbage): class of control value, Table 7
[3] = test system: Blumeria graminis f. sp. hordei; assay: Test Example D: Powdery mildew on barley; conditions: for Test D control value: Powdery mildew on barley; for control value, Test D (powdery mildew on barley): Table 7, Test D; for Test D control value (powdery mildew on barley): class of control value, Table 7
[4] = test system: Puccinia recondita; assay: Test Example E: Brown rust on wheat; conditions: for Test E control value: Brown rust on wheat; for control value, Test E (brown rust on wheat): Table 7, Test E; for Test E control value (brown rust on wheat): class of control value, Table 7
[5] = test system: Plasmopara viticola; assay: Test Example G: Downy mildew on vine; conditions: for Test G control value: Downy mildew on vine, 250 ppm sprayed, 7 to 10 days after inoculation; for Test G control value / Test G control value (downy mildew on vine): 2.5 ml/pot; for control value, Test G (downy mildew on vine): 250 ppm sprayed (2.5 ml/pot) before inoculation, assessed 7 to 10 days after inoculation; for Test G control value (downy mildew on vine): 250 ppm spray, investigated 7 to 10 days after inoculation

SMILES	control value, Test B (gray mold on tomato) [1]	control value, Test C (Alternaria sooty spot on cabbage) [2]	control value, Test D (powdery mildew on barley) [3]	control value, Test E (brown rust on wheat) [4]	control value, Test G (downy mildew on vine) [5]	Test B control value (gray mold on tomato) [1]	Test C control value (Alternaria sooty spot on cabbage) [2]	Test D control value (powdery mildew on barley) [3]	Test E control value (brown rust on wheat) [4]	Test G control value (downy mildew on vine) [5]	further results
CCn1c(-c2ccccc2Cl)c(-n2cc(Cl)cn2)cc(Br)c1=O [Compound 173]	–	–	–	–	–	–	–	–	–	–	Test B control value [1]: H (H shows the control value more than 50%); Test C control value [2]: H (H shows the control value more than 50%); Test D control value [3]: H (H shows the control value more than 50%); Test E control value [4]: H (H shows the control value more than 50%); Test G control value [5]: L (L shows the control value of 50% or less)
CCn1c(-c2c(F)cccc2Br)c(-n2cc(Cl)cn2)cc(Cl)c1=O [Compound 218]	L (L shows the control value of 50% or less)	H (H shows the control value more than 50%)	L (L shows the control value of 50% or less)	L (L shows the control value of 50% or less)	L (L shows the control value of 50% or less)	–	–	–	–	–	–
CCn1c(-c2ccccc2C)c(-n2ncc(C)c2Cl)cc(Cl)c1=O [Compound 244]	H (H shows the control value more than 50%)	H (H shows the control value more than 50%)	H (H shows the control value more than 50%)	H (H shows the control value more than 50%)	L (L shows the control value of 50% or less)	–	–	–	–	–	–
CCn1c(-c2c(F)cc(F)cc2F)c(-n2ncnc2I)cc(Cl)c1=O [Compound 48]	–	–	–	–	–	–	–	–	–	–	Test B control value [1]: H (H shows the control value more than 50%); Test C control value [2]: H (H shows the control value more than 50%); Test D control value [3]: H (H shows the control value more than 50%); Test E control value [4]: H (H shows the control value more than 50%); Test G control value [5]: H (H shows the control value more than 50%)
Cn1c(-c2ccc(F)cc2F)c(-n2cc(F)cn2)ccc1=O [Compound 463]	–	–	–	–	–	L (L shows the control value of 50% or less)	H (H shows the control value more than 50%)	H (H shows the control value more than 50%)	L (L shows the control value of 50% or less)	L (L shows the control value of 50% or less)	–
O=c1ccc(-c2sc(Br)cc2Cl)c(-c2c(F)cccc2F)n1CC(F)F [Compound 434]	–	–	–	–	–	L (L shows the control value of 50% or less)	L (L shows the control value of 50% or less)	L (L shows the control value of 50% or less)	L (L shows the control value of 50% or less)	L (L shows the control value of 50% or less)	–
CCn1c(-c2c(F)cc(OC)cc2F)c(C2OCCCO2)cc(Cl)c1=O [Compound 10]	–	–	–	–	–	–	–	–	–	–	Test B control value [1]: H (H shows the control value more than 50%); Test C control value [2]: H (H shows the control value more than 50%); Test D control value [3]: L (L shows the control value of 50% or less); Test E control value [4]: L (L shows the control value of 50% or less); Test G control value [5]: L (L shows the control value of 50% or less)
O=c1c(Br)cc(-c2cc(Br)sc2Cl)c(-c2c(F)cccc2F)n1CC(F)F [Compound 400]	–	–	–	–	–	L (L shows the control value of 50% or less)	H (H shows the control value more than 50%)	L (L shows the control value of 50% or less)	L (L shows the control value of 50% or less)	L (L shows the control value of 50% or less)	–
Cc1cnn(-c2cc(Br)c(=O)n(CC(F)F)c2-c2ccc(F)cc2Br)c1 [Compound 339]	H (H shows the control value more than 50%)	H (H shows the control value more than 50%)	H (H shows the control value more than 50%)	H (H shows the control value more than 50%)	L (L shows the control value of 50% or less)	–	–	–	–	–	–
CCn1c(-c2c(F)cc(OC)cc2F)c(-n2cc(F)cn2)cc(Br)c1=O [Compound 315]	H (H shows the control value more than 50%)	H (H shows the control value more than 50%)	H (H shows the control value more than 50%)	H (H shows the control value more than 50%)	L (L shows the control value of 50% or less)	–	–	–	–	–	–
Cc1cnn(-c2cc(Cl)c(=O)n(CC(F)F)c2-c2ccccc2F)c1Cl [Compound 310]	H (H shows the control value more than 50%)	H (H shows the control value more than 50%)	H (H shows the control value more than 50%)	H (H shows the control value more than 50%)	L (L shows the control value of 50% or less)	–	–	–	–	–	–
Cn1c(-c2c(F)cccc2F)c(-c2ccsc2Br)cc(Cl)c1=O [Compound 429]	–	–	–	–	–	H (H shows the control value more than 50%)	H (H shows the control value more than 50%)	L (L shows the control value of 50% or less)	H (H shows the control value more than 50%)	L (L shows the control value of 50% or less)	–
CCn1c(-c2c(F)cc(F)cc2F)c(-c2cccnc2Cl)cc(Cl)c1=O [Compound 62]	–	–	–	–	–	–	–	–	–	–	Test B control value [1]: H (H shows the control value more than 50%); Test C control value [2]: H (H shows the control value more than 50%); Test D control value [3]: H (H shows the control value more than 50%); Test E control value [4]: H (H shows the control value more than 50%); Test G control value [5]: H (H shows the control value more than 50%)
Cc1sc(Br)cc1-c1ccc(=O)n(C)c1-c1c(F)cccc1F [Compound 491]	–	–	–	–	–	H (H shows the control value more than 50%)	L (L shows the control value of 50% or less)	L (L shows the control value of 50% or less)	H (H shows the control value more than 50%)	H (H shows the control value more than 50%)	–
CCn1c(-c2ccccc2Br)c(-n2cc(F)cn2)ccc1=O [Compound 356]	H (H shows the control value more than 50%)	H (H shows the control value more than 50%)	H (H shows the control value more than 50%)	H (H shows the control value more than 50%)	L (L shows the control value of 50% or less)	–	–	–	–	–	–
